In the supplement of paper PMC9446081 one finds relative growth data, which are given here for 39 compounds.

Among all 39,000 compounds or so, about 220 (0.56%) showed activity. This is one part of the list.
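Note: static incubation at 37 °C against the wild-type strain, values averaged over two biological replicates.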

The subject of the experiment is Escherichia coli K-12 BW25113. The experiment is described as follows: relative growth (OD600 normalised to plate interquartile mean) (fraction); higher = less growth inhibition, active = 0.2 or less. The conditions noted are these: 50 µM; LB; incubation time: overnight (16-24 h).
Take `C[C@@H]1CN([C@H](C)CO)S(=O)(=O)c2ccc(C#Cc3cccc(F)c3)cc2O[C@@H]1CN(C)S(=O)(=O)c1cn(C)cn1`: the relative growth was inactive: 1.02. The result for `C[C@@H]1CN([C@@H](C)CO)C(=O)c2cc(NS(C)(=O)=O)ccc2O[C@@H](C)CCCCO[C@@H]1CN(C)S(=O)(=O)c1ccccc1` reads inactive: 0.98; that for `Cc1noc(C)c1NC(=O)N[C@@H]1CC[C@H](CC(=O)NCCCN(C)C)O[C@H]1CO`, inactive: 0.984; that for `O=C(N/N=C/[C@H](O)[C@@H](O)[C@H](O)CO)c1ccccn1`, inactive: 0.991. The result for `COc1ccc(S(=O)(=O)Nc2cccc3c2O[C@@H](CN(C)S(=O)(=O)c2cn(C)cn2)[C@@H](C)CN([C@H](C)CO)C3=O)cc1` reads inactive: 1. The result for `C[C@@H]1O[C@H](Oc2cc(O)c3c(=O)c(O[C@H]4O[C@H](CO)[C@H](O)[C@H](O)[C@@H]4O[C@@H]4O[C@H](C)[C@@H](O)[C@H](O)[C@@H]4O)c(-c4ccc(O)c(O)c4)oc3c2)[C@@H](O)[C@H](O)[C@@H]1O` reads inactive: 1.04; that for `C[C@H]1CN([C@@H](C)CO)C(=O)c2c(c3ccccc3n2C)-c2ccccc2CO[C@@H]1CN(C)Cc1cccc(F)c1`, inactive: 0.962. `COc1ccc(OCCN2CCC(C(=O)N[C@@H](c3ccc(F)cc3)c3ccc4ccccc4n3)CC2)cc1`: the relative growth was inactive: 0.985. To `CC(C)NC(=O)Nc1cccc2c1O[C@@H](CN(C)C(=O)Nc1ccc3c(c1)OCO3)[C@H](C)CN([C@H](C)CO)C2=O` belongs inactive: 0.993; to `COc1ccc(C#Cc2ccc3c(c2)O[C@H](CN(C)C(=O)CN2CCOCC2)[C@H](C)CN([C@H](C)CO)S3(=O)=O)cc1`, inactive: 1.01; to `C[C@@H]1CN([C@H](C)CO)C(=O)c2cccc(NC(=O)Nc3cccc4ccccc34)c2O[C@@H]1CN(C)C(=O)Nc1ccccc1`, inactive: 1.02. To `C[C@H](CO)N1C[C@H](C)[C@@H](CN(C)C(=O)Nc2ccc3c(c2)OCO3)Oc2ccc(NS(C)(=O)=O)cc2CC1=O` belongs inactive: 0.935.

As for `COC(=O)CNC(=O)c1ccc(F)cc1`, the relative growth was inactive: 0.997. To `C[C@H](CO)N1C[C@H](C)[C@@H](CN(C)C(=O)C2CC2)Oc2cc(-c3ccc(C(=O)N(C)C)cc3)ccc2S1(=O)=O` belongs inactive: 0.989; to `C[C@@H]1CCCCO[C@@H](CN(C)Cc2ccc(C(=O)O)cc2)[C@H](C)CN([C@@H](C)CO)C(=O)c2cc(NC(=O)Nc3cccc4ccccc34)ccc2O1`, inactive: 0.984. The result for `Cc1noc(C)c1S(=O)(=O)Nc1ccc2c(c1)CC(=O)N([C@@H](C)CO)C[C@@H](C)[C@@H](CN(C)C(=O)Nc1ccc3c(c1)OCO3)O2` reads inactive: 0.981.

Regarding `CN(C)C/C=C/C(=O)Nc1ccc(C(=O)Nc2cccc(Nc3ncc(Cl)c(-c4c[nH]c5ccccc45)n3)c2)cc1`, the relative growth was inactive: 1.02. The result for `CC(C)NC(=O)N(C)C[C@@H]1Oc2ccc(NS(=O)(=O)c3cn(C)cn3)cc2C(=O)N([C@H](C)CO)C[C@@H]1C` reads inactive: 0.967; that for `C=CCC[C@H](Cc1ccc(F)cc1)C(=O)OC[C@H](Cc1c[nH]c2ccccc12)NC(=O)[C@H](CC=C)CC(=O)N(CCO)Cc1ccccc1`, inactive: 1.09. As for `Brc1ccc(-c2cc3n(c2)CCc2ccccc2-3)cc1`, the relative growth was inactive: 1.04. The result for `O=C(NCC[C@H]1CC[C@@H](NS(=O)(=O)c2cccc(F)c2)[C@@H](CO)O1)C1CC1` reads inactive: 0.996; that for `O=c1[nH]nc(Br)c(=O)[nH]1`, inactive: 0.983. The result for `OC[C@H]1O[C@@H](n2cnc3c(NC4CCCC4)ncnc32)[C@H](O)[C@@H]1O` reads inactive: 0.996; that for `COc1ccc(-c2cnc3c(c2)C(=O)N([C@H](C)CO)C[C@@H](C)[C@@H](CN(C)C(=O)C2CCOCC2)O3)cc1`, inactive: 0.984. To `C[N+](C)(C)CCO.Cn1c(=O)c2[n-]cnc2n(C)c1=O` belongs inactive: 1.06; to `CC[C@H]1OC(=O)[C@H](C)[C@@H](O[C@H]2C[C@@](C)(OC)[C@@H](O)[C@H](C)O2)[C@H](C)[C@@H](O[C@@H]2O[C@H](C)C[C@H](N(C)C)[C@H]2O)[C@](C)(O)C[C@@H](C)C(=O)[C@H](C)[C@@H](O)[C@]1(C)O`, active: 0.0484; to `C[C@@H]1CCCCO[C@@H](CN(C)Cc2ccc(C(=O)Nc3ccccc3N)cc2)[C@@H](C)CN([C@@H](C)CO)C(=O)c2cc(N(C)C)ccc2O1`, inactive: 0.994. As for `C[C@H]1CN([C@@H](C)CO)C(=O)Cc2cc(NC(=O)NC3CCCCC3)ccc2O[C@H]1CN(C)S(C)(=O)=O`, the relative growth was inactive: 1. To `Cl.NC(Cc1ccc(O)cc1)C(=O)O` (centres undefined) belongs inactive: 0.85.

`Cl.NCCS`: the relative growth is inactive: 1.04. As to `C[C@@H]1CCCCO[C@@H](CN(C)CC2CCCCC2)[C@H](C)CN([C@@H](C)CO)C(=O)c2cc(NS(=O)(=O)c3ccccc3)ccc2O1`, the relative growth is inactive: 1.01. To `C[C@@H]1CN([C@H](C)CO)C(=O)c2cc(NC(=O)CCCCCC(=O)Nc3ccccc3N)ccc2O[C@H]1CN(C)CC1CCCCC1` belongs inactive: 0.965. To `Cc1noc(C)c1S(=O)(=O)N(C)C[C@H]1Oc2ccc(NC(=O)Cc3ccccc3)cc2CC(=O)N([C@H](C)CO)C[C@@H]1C` belongs inactive: 1.03. The result for `C[C@H](CO)N1C[C@H](C)[C@H](CN(C)C(=O)Nc2ccc(C(C)(C)C)cc2)OCc2cnnn2CCCC1=O` reads inactive: 1; that for `Brc1ccc2nc(N3CCCN(Cc4ccccc4)CC3)nc(NC3CCN(Cc4ccccc4)CC3)c2c1`, inactive: 0.25; that for `O=C(CN1CCOCC1)N[C@@H]1CC[C@H](CCn2cc(C3CC3)nn2)O[C@@H]1CO`, inactive: 0.953.

In the case of `COc1ccc(S(=O)(=O)N(C)C[C@H]2OCCCC[C@H](C)Oc3ccc(NC(=O)Nc4c(C)noc4C)cc3C(=O)N([C@H](C)CO)C[C@@H]2C)cc1`, the relative growth is inactive: 0.977.

In the case of `C[C@@H]1CN([C@@H](C)CO)C(=O)Cc2cc(NC(=O)Nc3cccc4ccccc34)ccc2O[C@@H]1CN(C)C(=O)Nc1ccc2c(c1)OCO2`, the relative growth is inactive: 1.01.

Turning to `CN(C=O)CP(=O)(O)CN1CCCCC1`, the relative growth is inactive: 1.03.
